Assay results taken from the supplement of paper PMC11417369.
The list shows a part of the results.

tested on: PfSIP2 AP2 domain 1 (GST-tagged); experiment: gcPBM binding intensity (ln(normalized median fluorescence intensity)); higher = stronger DNA binding
Method in brief: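 GST-fused DNA-binding domains of P. falciparum, expressed in E. coli, were applied at about 25 μg on average for 1 h to an Agilent 4 × 180k array of primer-extended double-stranded 36-bp intergenic genomic probes and negative controls. Binding intensity is the highest Masliner-normalised natural-log median intensity across replicate spots of either probe orientation, measured with Alexa488 anti-GST antibody and a 488 nm scan.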

Row | Sequence | gcPBM binding intensity (ln)
1 | AAAATGTTTTTATCCAGTACATAAATATATATATAT [XGTACX_site7398] | 8.83
2 | TATGAACACCCAAATACACACACTCAAAAAAAAAAA [CACACA_site5466] | 6.98
3 | TCAGATCCATAGAAGGTGCAAATAACAAAAATACAA [GTGCAC_site9610] | 10.9
4 | TAATTTTTCTTATATAGTACACAAAAAGAAAATTAC [XGTACX_site6393] | 7.07
5 | ATATATATATATATATGTACATATATTTGTAATGTC [XGTACX_site8074] | 9.37
6 | TTTATTATGTAAGCATGTACATGATGTATATATTTA [XGTACX_site5021] | 7.07
7 | ATCTGTACAGTTTTTGCACACATATAAATAAAAAAA [CACACA_site9198] | 7.85
8 | TATTTACAAATAAAAAGTACATAAACTAATATCTTT [XGTACX_site2181] | 7.27
9 | TTGTTTGTAAACAGATGTACATATAAAAATATATAT [XGTACX_site3370] | 7.31
10 | TATATTAGAAAGGATACACACATATATAAATATCTA [CACACA_site6411] | 6.74
11 | TAAATACTTATATGTACACACATATAGATATATATT [CACACA_site2553] | 7.01
12 | ATATAAATAAATGTATGTACATATATTTATATGCAT [XGTACX_site4185] | 7.1
13 | CACAGACACGGACACACACACACACCGATATATATA [CACACA_site4353] | 7.79
14 | ATTTTTTAAAATATTTGTACATATATAATGCATATA [XGTACX_site7026] | 7.14
15 | ATATAATCTGAGTGCACACAAATAAATAAACATACA [CACACA_site422] | 10.4
16 | TAAAAGGATGCATATACACACATATAGATTTATATA [CACACA_site7336] | 6.98
17 | TTTTTTTTGTATTTTTCACACACACCGAAGTAAACA [CACACA_site8575] | 7.39
18 | AGTTGCATACATTGAAGTACAGAACATTTATATATA [XGTACX_site240] | 7.02
19 | TTTTTCCTTATTAATACACACATTCACCTTTTAAAT [CACACA_site479] | 7.29
20 | TTAAATTCGTCATTTTAAAATAATACAAAAGTTCAA [CACACA_negctrl_site19] | 6.81
21 | TTACGATTTAAAATGGGTACATATATATGAAAAAAA [XGTACX_site545] | 7.15
22 | CTTATGTGCATACCTACACACTTACCTATATTTATA [CACACA_site7411] | 7.99
23 | TCAAAGTAAAACAGGACATGCACAGAACATCCTGCC [TGCATGCA_site2] | 7.58

Row | Sequence | gcPBM binding intensity (ln)
24 | AAAAAAAAAACATACACACACATATAGATTTATATG [CACACA_site6847] | 6.89
25 | TAAAGAAAAATATAAAGTACAAAAATAAAAAAAATA [XGTACX_site8226] | 6.93
26 | TACACAAAGTTACATACACACTAATATTTACACCAT [CACACA_site6602] | 6.91
27 | GTATTTATGTGTTTGGTGCAAGGGAGAATTTTTTTT | 9.42
28 | AATATGTTTTACGTCTCACACATATAGGTTTATATT [CACACA_site4713] | 6.92
29 | CATAAATACAAATATACACACATATTTATATTTATA [CACACA_site7277] | 7
30 | ATTATACTTTCCATTCGTACATATATAAATAAATAA [XGTACX_site6245] | 7.64
31 | ATATATAGATGTGAATTATTTATATTATCTATTCTT [CACACA_negctrl_site518] | 6.74
32 | AAAAAGAACACAAAAAGTACAAAAATTATAATGATA [XGTACX_site2676] | 6.98
33 | AAACTTCAAAAAGAGCACTTGAATTTTTTTTTTTTT [TGCATGCA_negctrl_site133] | 6.69
34 | AACAATAAATTATTATGTACACATATATTATATATA [XGTACX_site4629] | 7.36
35 | ATATTTTAAAATAATACACACAAAATGATTCTTAAT [CACACA_site2930] | 6.96
36 | ATAAGTATTACTAGTACACACAAGTTGTTAATCCTT [CACACA_site3324] | 7.07
37 | TATATTATATAATTTTAACACACAAGAATATAAACT [CACACA_site8378] | 7.13
38 | TATTTAAAATAATAACAAAATTAACATAAATATATA [GTGCAC_negctrl_site472] | 6.82
39 | AAGGTGGGAAAAAATAGTACACAACAAAAATGTATG [XGTACX_site8741] | 7.23
40 | ATATATCTATATGTGTGTACATATAAGTATTTATAT [XGTACX_site5333] | 7.13
41 | ACATATAAACTGTATACACACAAATATTGCATATAT [CACACA_site6804] | 7.16
42 | AGAAAAGAGAAATGGGCACACACACCCATATTATAT [CACACA_site8433] | 6.63
43 | TACATTCTAAATATTACACACTTTATAAAATAATAA [CACACA_site4069] | 7.09
44 | ATATATATAAATATATGTACTAATATATACATATAT [XGTACX_site2289] | 7.19
45 | CCCATGTAATATTAAACACACACTCATATAACACAA [CACACA_site7906] | 7.12
46 | TTGTATCATATATTATGTACATATTTATTTATTATC [XGTACX_site7723] | 7.03

Row | Sequence | gcPBM binding intensity (ln)
47 | CAAAATATTTAAAAAAGTACTTAAAATAAATTCAAA [XGTACX_site6866] | 6.7
48 | ATATTTAAATATATTTATATATATAAAAAAAAATAT [GTGCAC_negctrl_site312] | 7.03
49 | AAAAAAATAAAAAATATATAAATAATTAATACATGT [GTGCAC_negctrl_site633] | 6.89
50 | CACACAACTATCAAGGTGCTAAAATGAAATAATATA [GTGCAC_site9871] | 8.34
51 | AATATAAATAAAAACACACACACACGGATATTTATA [CACACA_site7134] | 7
52 | AAACCAAGGCACAATAATTAAATAAATAAAATCATG [GTGCAC_negctrl_site574] | 6.81
53 | ATTTATATATATATAGGTACACATATTTATATATAA [XGTACX_site8487] | 7.01
54 | ATATAATTTTTCAAGTGTACTTTTTTTTTTTAACAT [XGTACX_site3050] | 7.62
55 | CATAATTATGCAATTGCACACAACTATCATTTTTTT [CACACA_site2997] | 8.88
56 | TCATTCATATGTTACACACACACACCCACATAAAAA [CACACA_site3245] | 7.29
57 | TATATATAAAAAACATGTACACAAATTTACATACAT [XGTACX_site4777] | 7.08
58 | TCACTAAACCATTAGAGTACTTGACATATAATGAGC [XGTACX_site3272] | 6.93
59 | AAGAGTTAAAAAAATACACACATATATATTTTTTTA [CACACA_site1980] | 6.96
60 | GATTATATATGAAAATGTACAAATATATATATATAT [XGTACX_site5963] | 9.41
61 | AAAAAAAAAAAAAAAAAAAAAAAAAAATACATATGT [XGTACX_negctrl_site95] | 8.76
62 | TTTTTGTATGCTTCCCGACTACATTATGCCATAAAT [CACACA_negctrl_site136] | 7.33
63 | GTTTACATTAAAAATTGTACTCTGTATGAATAATAT [XGTACX_site80] | 7
64 | CTTAAAAAAACCTTAACACACATAAACTCTAATTTA [CACACA_site7430] | 6.62
65 | ATTTCATTTTATAAGTGTACAATAAAAAAAAAAAAA [XGTACX_site8677] | 7.22
66 | GATGATACAAAGTAATGTACATAAATACACATATTG [XGTACX_site3177] | 6.95
67 | ATATAAACAGAAAATAGTACTTTATATTGAAAAAAA [XGTACX_site7183] | 6.73
68 | AAATTTGATATAAAAAGTACAAAATGTTCCTCAGCT [XGTACX_site809] | 6.83
69 | CATTATGTCGTAAATACACACATACCTATACATACA [CACACA_site6763] | 7.04

Row | Sequence | gcPBM binding intensity (ln)
70 | CCATAAGATATATGTAGTACATATTATATATATATA [XGTACX_site2104] | 9.08
71 | TATACACATATATAAACACACAAAAAAAAAAAAAAA [CACACA_site7041] | 7.01
72 | AATATATAGCTAAAAACACACAAATATATACGCATA [CACACA_site3608] | 6.83
73 | TTTATATGATATATTACACACAAAAAAAAAAAAAAA [CACACA_site3549] | 7.45
74 | CTCTTCTATATATAAGCATGCATTCATAATAATTTA [TGCATGCA_site679] | 7.22
75 | TAGATACTTGTCATGGGTACATATCGTACCTTTTGG [XGTACX_site6781] | 6.87
76 | GATAATTTTTTTCTCACACACAAATATTTTAATCAT [CACACA_site3666] | 7.24
77 | AAATATATTATATCATATATTAAAGCATATATTAAA [CACACA_negctrl_site1624] | 6.67
78 | AAAAAAAAAAAACACACACACACACCGACACATACA [CACACA_site5576] | 7.2
79 | AGGTAAAAATGGTAAGTGCATTAATGATAAAAAATG | 7.96
80 | GAATATTCACATACTTGTACATATATATATATATAT [XGTACX_site7302] | 8.9
81 | TAATAATAGTACTGACATCGAAATATTATTAAAAAT [CACACA_negctrl_site255] | 6.73
82 | TGGCAAAATAGGCACACACACATATACCTATAGATT [CACACA_site7168] | 7.05
83 | GTAAATATATAAACATGTACATATATAAATATATAA [XGTACX_site7262] | 7.17
84 | ATATTTTGGGGACTTTTTAAAAAAGAAGTATTAAAA [CACACA_negctrl_site1228] | 7.21
85 | CAAAAAAAATAAAACACACACACAAAAAAATAAAAA [CACACA_site466] | 6.88
86 | TATAAGAATAAAAAGGGTACATAAAATAATAATATA [XGTACX_site2355] | 7.13
87 | GTTTACATAGATAACTGTACGCAATGATATTAGACA [XGTACX_site1320] | 7.05
88 | ATATTTCTGTGTGGATGTACATTATTAGCAGGCTTT [XGTACX_site6496] | 7.24
89 | AAAATATATACACAAACATGCATATAATAAATAAAT [TGCATGCA_site711] | 6.94
